Source: the supplement of paper PMC4166925
± gives the standard deviation of the averaged measurements. In all, about 33,000 sequences were measured (“E-score (dimensionless, -0.5 to 0.5)”: median about -0.049, highest 2% from about 0.37 on). This is one part of the list.

test system: T1, PmTbr T-box DNA-binding domain (GST fusion); test: PBM E-score of 8-mer (E-score (dimensionless, -0.5 to 0.5)); Tbr is Tbrain of the sea star Patiria miniata (Pm) or the sea urchin Strongylocentrotus purpuratus (Sp); higher = stronger binding preference; most listed sequences are background and not binding sites; settings: the construct has about 5 more residues each side
T1 sequence: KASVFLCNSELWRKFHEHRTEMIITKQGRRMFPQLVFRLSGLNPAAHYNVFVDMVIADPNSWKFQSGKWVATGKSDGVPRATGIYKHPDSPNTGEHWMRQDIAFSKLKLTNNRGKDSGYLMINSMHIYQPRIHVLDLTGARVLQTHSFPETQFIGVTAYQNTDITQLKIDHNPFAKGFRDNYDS
Protocol: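 Universal protein-binding microarray (Agilent AMADID 016060, 60-bp probes with a 35-bp variable region) incubated with 200 nM GST-fused Patiria miniata Tbr T-box DNA-binding domain (residues 272-466) in PBS pH 7.5. Scored for every ungapped 8-mer (given with its reverse complement) by the Universal PBM Analysis Suite as E-score (modified Wilcoxon-Mann-Whitney enrichment, range -0.5 to 0.5; >0.45 counts as bound) and Z-score of median probe intensity. Two replicate arrays (datasets 1 and 2).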
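Further: 200 nM protein in PBS on universal arrays averaged over duplicate arrays.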

Sequence | PBM E-score of 8-mer
ACTTTCGA | 0.092 ± 0.015
GCGTACGC | -0.271 ± 0.032
AAAAGTTA | 0.0746 ± 0.034
AATCGGCA | 0.105 ± 0.029
CAAAAGAG | -0.0129 ± 0.01
CTCACTGA | -0.0614 ± 0.026
GGGCAGAC | -0.229 ± 0.048
CACCGGCC | -0.137 ± 0.013
CGATGGAC | -0.128 ± 0.039
AATTCAAC | -0.0495 ± 0.094
GACTACGC | -0.0623 ± 0.012
ACTATCCG | 0.0513 ± 0.055
CTCCGGAA | -0.0906 ± 0.002
ATATTTGG | -0.0658 ± 0.0069
CCTACAGG | -0.00713 ± 0.024
TCTTTCCA | -0.15 ± 0.0024
CCAGCCCG | -0.162 ± 0.033
ATAACAAG | 0.135 ± 0.083
AAAGGTAA | -0.21 ± 0.041
CACGAGAA | 0.16 ± 0.057
CTCGTGAA | 0.304 ± 0.012
CCATCGGA | -0.262 ± 0.034
GACCTAGC | 0.0365 ± 0.092
GCGGTTAA | -0.0858 ± 0.055
GTGAACGA | 0.123 ± 0.056

Sequence | PBM E-score of 8-mer
GCTTTTAC | -0.0958 ± 0.037
CCGGCACA | -0.0527 ± 0.09
AGAGGCCG | -0.144 ± 0.0017
ATATAAAA | -0.102 ± 0.0067
ACGGTTTA | -0.0318 ± 0.025
ACTTATCT | 0.0528 ± 0.011
ATTGATGC | -0.105 ± 0.0063
CGATCGAG | -0.138 ± 0.031
GCATAACA | 0.2 ± 0.047
CTGAATCA | -0.0806 ± 0.082
GCATGGAC | -0.319 ± 0.036
CAGACCGG | -0.136 ± 0.057
CGAGACAC | 0.234 ± 0.04
AGGCCAAC | -0.124 ± 0.03
GTTGTTTA | -0.0255 ± 0.029
ATCTTGGA | -0.00237 ± 0.041
ACTCTAGA | 0.0643 ± 0.0049
CCCTAATC | -0.0746 ± 0.04
CATGCCCA | -0.134 ± 0.068
ACGAAAGG | -0.058 ± 0.024
GCGGCCGC | -0.00922 ± 0.042
ACGAAGTC | -0.0232 ± 0.071
ACACTCAT | 0.26 ± 0.0097
CAACGACG | 0.0999 ± 0.029
AGCGTGTG | 0.198 ± 0.039

Sequence | PBM E-score of 8-mer
ATAAACGA | -0.189 ± 0.005
ACGGTCGA | -0.175 ± 0.016
CGCATGCG | -0.137 ± 0.05
AACCGTTG | 0.136 ± 0.03
CGTGGACA | 0.0649 ± 0.0042
ACAGGGCC | -0.133 ± 0.027
CTAGGAAC | -0.0704 ± 0.05
CTACAGCC | -0.28 ± 0.059
AAAACTGC | 0.178 ± 0.06
CTGAATGA | -0.037 ± 0.014
AAAGCCGT | 0.00793 ± 0.079
GCACGGGC | -0.146 ± 0.0018
ATCTTTTA | -0.0392 ± 0.0051
ACGCGTCT | 0.151 ± 0.041
GACGTCAA | 0.0558 ± 0.01
AACCCTAA | -0.24 ± 0.0083
ATAGAAGG | 0.0407 ± 0.046
AGCCCCTG | -0.276 ± 0.062
GCAAGTGC | 0.321 ± 0.043
CTGCGCTC | -0.0738 ± 0.024
AGTGCCCG | -0.00573 ± 0.076
AACGTAAA | -0.16 ± 0.053
ATGATGTG | 0.238 ± 0.0093
ATAGGTCC | -0.107 ± 0.048
AGATTTTC | 0.0361 ± 0.063

Sequence | PBM E-score of 8-mer
CGTCAGAC | 0.0426 ± 0.046
AACGGCGC | 0.111 ± 0.047
GTCTTTTA | -0.293 ± 0.013
CGTCCGAA | -0.154 ± 0.043
CACGGCAG | 0.145 ± 0.023
TCTCGACA | 0.291 ± 0.0033
CACCTAAC | 0.408 ± 0.028
CTGGTTTA | -0.0523 ± 0.0055
GCTTTCGA | -0.101 ± 0.042
AGTACACA | -0.0177 ± 0.081
CCACTTCG | 0.254 ± 0.028
CAACTGTA | 0.0741 ± 0.023
ATGTCAGG | -0.0995 ± 0.032
CCCGAGGA | -0.249 ± 0.021
ATTGTTTC | 0.00872 ± 0.0024
CGACGCAG | -0.0974 ± 0.005
TCCCGTAA | -0.228 ± 0.042
AACAGCTG | 0.143 ± 0.069
AACTGCAC | -0.0895 ± 0.086
GCTGAAGA | -0.00965 ± 0.017
AGAGAAAG | 0.0684 ± 0.065
CAGCTACC | 0.0123 ± 0.028
ATTGCTCA | -0.196 ± 0.025
CAATCCGG | -0.156 ± 0.057
AGATTGTG | 0.12 ± 0.0052

Sequence | PBM E-score of 8-mer
ATTTGCTC | -0.171 ± 0.029
CAGCGGAC | -0.185 ± 0.011
AAGACAAA | -0.022 ± 0.03
TAAAGGTA | -0.0352 ± 0.019
CTTTGATC | -0.243 ± 0.0065
CACTAAAG | 0.0928 ± 0.034
ATACCTCA | 0.0693 ± 0.043
ATTACAAC | 0.0578 ± 0.049
CTGGATTC | -0.168 ± 0.033
CAGCCCTG | -0.294 ± 0.015
ACTTCCTC | -0.105 ± 0.012
GCTCCCAC | -0.129 ± 0.041
AGCTGCCA | 0.18 ± 0.026
CAAACTAC | -0.105 ± 0.015
CGTTCCGC | -0.165 ± 0.053
CCAGATCG | -0.0111 ± 0.037
CGCAACAG | 0.0766 ± 0.031
CCCACTTA | 0.125 ± 0.012
ATTTTCAA | -0.116 ± 0.085
ACATAGAA | -0.0327 ± 0.1
AAGTCGGC | -0.106 ± 0.012
AATTTACG | 0.00998 ± 0.098
ACCAGTCG | -0.00829 ± 0.055
ATCGTGTC | 0.192 ± 0.028
CAGAGAAA | 0.122 ± 0.043

Sequence | PBM E-score of 8-mer
GGTACGAA | 0.137 ± 0.025
AGGCGAAT | -0.177 ± 0.025
GCTCACAC | 0.424 ± 0.01
GAGATGCA | -0.227 ± 0.071
ATGCTGGG | -0.226 ± 0.066
CGCTTGAA | -0.191 ± 0.056
CAATCCCA | -0.116 ± 0.062
ATACATGG | -0.0525 ± 0.051
ACGTGAGG | 0.159 ± 0.04
ATTAATGA | -0.228 ± 0.05
ATCAGAGG | -0.0373 ± 0.014
AAACAATC | -0.141 ± 0.063
AGGGGCGC | 0.0211 ± 0.039
AAACTTTC | -0.0307 ± 0.056
AAGGAGCC | 0.00965 ± 0.022
ACAGGCGT | 0.299 ± 0.04
ATCTTTAA | -0.0751 ± 0.039
ACTTATAT | 0.0812 ± 0.011
CTTTGATA | -0.246 ± 0.022
AGGAGGAG | -0.152 ± 0.061
CGGTGTTC | -0.0289 ± 0.062
AAAGCCCC | -0.334 ± 0.025
CCATGCTC | -0.154 ± 0.043
CTCTGTGC | -0.0888 ± 0.082
CAAAAGAA | -0.103 ± 0.064

Sequence | PBM E-score of 8-mer
CAAGATTA | -0.103 ± 0.079
CTTGTCTC | 0.0562 ± 0.053
CAAAGCAG | -0.133 ± 0.039
CGCTAGTC | 0.109 ± 0.0089
GGCAGAAA | -0.0936 ± 0.045
GTCCTCAC | 0.18 ± 0.017
CTCGTCTA | 0.00098 ± 0.044
AAGTACAC | 0.0873 ± 0.06
ATAGGCCC | -0.141 ± 0.098
AAGCAATA | -0.168 ± 0.089
AACGGCTA | -0.0547 ± 0.041
CGCACATA | 0.35 ± 0.013
AGAGAGCT | -0.0721 ± 0.087
CCAGGCCG | 0.0213 ± 0.025
CAAAAGGA | -0.00677 ± 0.051
AGTTGGGG | -0.28 ± 0.12
ATTCAAGA | -0.232 ± 0.022
GACGAACA | 0.0114 ± 0.05
GAAAACCA | -0.00925 ± 0.096
ATCGCATA | 0.00104 ± 0.018
ATGGGATA | -0.116 ± 0.062
ATCCAAAT | 0.153 ± 0.015
